Assay results as given in PubChem BioAssay AID485294 (National Center for Advancing Translational Sciences (NCATS), 2010).
Hit rate of the full screen: of about 370,000 compounds, about 150 (0.041%) were called active. The shares of active, inactive and inconclusive entries below differ from those in the screen. Calls follow the shape of the dose curve; as a rule, active = well fitted inhibition curve with a large enough effect; inconclusive = small, poorly fitted or top-dose-only effect; inactive = flat fitted curve, though single readings scatter. No potency is given beside an inconclusive call; the fits are too rough.

The compounds below were run against Beta-lactamase (Escherichia coli (strain K12)) (UniProt P00811) (assay: qHTS Inhibitors of AmpC Beta-Lactamase (assay with detergent)). Conditions: AmpC hydrolysis of nitrocefin, absorbance 480 nm, 0.01% Triton; activity change, negative = inhibition: at 114 µM (top of the series).
Chain of UniProt P00811 (P00811 whole entry, looked up): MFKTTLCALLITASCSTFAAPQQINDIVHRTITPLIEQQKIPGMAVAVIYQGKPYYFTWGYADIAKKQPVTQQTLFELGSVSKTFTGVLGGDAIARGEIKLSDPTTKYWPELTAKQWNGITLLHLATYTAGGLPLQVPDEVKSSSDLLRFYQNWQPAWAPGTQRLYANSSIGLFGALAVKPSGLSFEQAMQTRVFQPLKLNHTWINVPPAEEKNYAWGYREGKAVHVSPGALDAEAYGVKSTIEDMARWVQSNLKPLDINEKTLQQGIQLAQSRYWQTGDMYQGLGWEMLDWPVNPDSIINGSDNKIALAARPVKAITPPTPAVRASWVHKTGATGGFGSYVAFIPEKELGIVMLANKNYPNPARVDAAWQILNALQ
Method in brief: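 AmpC (5.3 nM in the dispensed reagent) in 20 mM phosphate pH 7.0 with 0.01% (detergent screen) or 0.0001% Triton X-100 was preincubated with compounds for 15 min at room temperature. Nitrocefin was then added from an 800 uM solution, and hydrolysis was followed at 480 nm.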
Also: nearly all actives have a fitted effect of over 25% in size.
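For activity change, negative = inhibition in this document: 0% = no-compound wells and -100% = no-enzyme wells.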
Potency is read from the fitted curve at half-maximal effect; tags tell the direction and shape of the fitted curve.

| Structure (SMILES) | activity change, negative = inhibition | Potency |
| --- | --- | --- |
| O=C(O)C(c1ccccc1)N1C(=O)/C(=C/c2cccs2)SC1=S (configuration not stated) | inactive: -2.18% |  |
| CCCCNC(=O)/C=C/c1cccs1 | inactive: -3.46% |  |
| COc1ccccc1NC(=S)NNC(=O)c1nn(C)c(C)c1Br | inactive: 2.86% |  |
| COCC1CCN(C(=O)c2oc3c(F)cccc3c2C)C1 (configuration not stated) | inactive: -0.219% |  |
| Cc1c(C(=O)N2CCC(Cc3ccccc3)CC2)cccc1[N+](=O)[O-] | inactive: -2.07% |  |
| O=C(NCc1ccc(F)cc1)c1cccnc1 |  | inconclusive [inhibitor, partial curve, poor fit] |
| Cn1c(=O)oc2cc(S(=O)(=O)N3CCCC(C(=O)N4CC=C(c5ccccc5)CC4)C3)ccc21 (configuration not stated) | inactive: -9.28% |  |
| Cc1nn(Cc2ccc(C(=O)Nc3nc4c(C)cccc4s3)o2)c(C)c1Br |  | inconclusive [inhibitor, full curve, poor fit] |
| COc1ccc(C(CNC(=O)C(=O)Nc2ccc3c(c2)OCO3)N2CCN(C)CC2)cc1 (configuration not stated) |  | inconclusive [inhibitor, full curve, poor fit] |
| COc1cccc(CNC(=O)CCc2nnc3n(C)c(=O)c4sccc4n23)c1 | inactive: 14.3% |  |
| COc1cccc([C@@H]2CC=C(C(=O)O)[C@H](c3cccc(Cl)c3)N2S(=O)(=O)c2ccc(C)cc2)c1 |  | inconclusive [inhibitor, full curve, poor fit] |
| Cc1ccc(CSc2nnc(Cn3c(=O)sc4ccccc43)n2C)cc1 |  | inconclusive [inhibitor, full curve, poor fit] |
| O=C1COCC(=O)N1CCc1c[nH]c2ccccc12 | inactive: 0.0106% |  |
| Cc1cc(C)c(S(=O)(=O)N2CCCOC2CNC(=O)C(=O)NCCCn2ccnc2)c(C)c1 (configuration not stated) |  | inconclusive [inhibitor, full curve, poor fit] |
| Cc1ccc(S(=O)(=O)Nc2ccc(C(=O)Nc3ccncc3)cc2)cc1 |  | inconclusive [inhibitor, full curve] |
| C=CCc1cc(Cl)ccc1OCCOCCNC(C)CC (configuration not stated) | inactive: 4.04% |  |
| Cc1ccc(C)c(NC(=O)CNC(=O)N2CC(=O)Nc3ccccc32)c1 | inactive: -1.86% |  |
| COc1cccc2sc(N(CCCN(C)C)C(=O)CCS(=O)(=O)c3ccccc3)nc12 |  | inconclusive [inhibitor, partial curve] |
| CN(C)CCNC(=O)C(=O)Nc1cc2c3c(c1)CCN3C(=O)CC2 |  | inconclusive [inhibitor, partial curve] |
| CCOc1ccc(S(=O)(=O)Nc2cc(C)ccn2)c2ccccc12 |  | inconclusive [inhibitor, single point] |
| Fc1ccc(Cc2nnc(-c3cccs3)o2)cc1 |  | inconclusive [inhibitor, full curve, poor fit] |
| C1CCCCCC(=NNc2nn[nH]n2)CCCCC1 | inactive: 0.717% |  |
| CCc1nnc(NC(=O)CCC(=O)NC2CCCc3ccccc32)s1 (configuration not stated) |  | inconclusive [inhibitor, full curve] |

| Structure (SMILES) | activity change, negative = inhibition | Potency |
| --- | --- | --- |
| COc1ccc2oc(=O)cc(CN3CCN(C(=O)c4ccccc4F)CC3)c2c1 | inactive: -1.81% |  |
| O=C(Nc1nc(-c2cccs2)cs1)c1cccc(S(=O)(=O)N2CCCCC2)c1 | inactive: 1.73% |  |
| COc1ccc(CNC(=O)Cn2ccc3cc(S(=O)(=O)N4CCCCCC4)ccc32)cc1OC |  | inconclusive [inhibitor, single point] |
| O=C(O)C1CCN(S(=O)(=O)c2cccs2)CC1 |  | inconclusive [inhibitor, full curve, poor fit] |
| O=C(/C=C/c1cccc(Cl)c1)c1ccc([N+](=O)[O-])o1 |  | inconclusive [inhibitor, partial curve, poor fit] |
| CC(=O)c1ccc(N(C(=O)Cc2c[nH]c3ccccc23)C(C(=O)NC2CCCCC2)c2cccs2)cc1 (configuration not stated) | inactive: 0.381% |  |
| CC(C)N1C(=O)C2(OCCCO2)c2cc(Br)ccc21 |  | inconclusive [inhibitor, full curve, poor fit] |
| Nc1c(NCCN2CCCCC2)c2ccccc2oc1=O | inactive: -0.274% |  |
| Cc1ccc(C(C)(C)C)c(OCCCCN2CCCC2)c1 |  | inconclusive [inhibitor, full curve, poor fit] |
| CCCCOc1ccc(C(=O)N2CCNC(=O)C2CC(=O)OC(C)C)cc1 (configuration not stated) |  | inconclusive [inhibitor, full curve, poor fit] |
| CCCCN(C)CCn1c(=S)[nH]c2ncccc2c1=O |  | inconclusive [inhibitor, full curve, poor fit] |
| O=C(Cc1n[nH]c(=O)c2ccccc12)OCC(=O)c1ccccc1Cl |  | inconclusive [inhibitor, full curve, poor fit] |
| Cc1ccc(SC(C)C(=O)Nc2ccccc2C(=O)N2CCOCC2)cc1 (configuration not stated) |  | inconclusive [inhibitor, full curve, poor fit] |
| N#C/C=C1\Sc2ccccc2C(=O)N1CC(=O)N1CCN(S(=O)(=O)c2ccccc2)CC1 |  | inconclusive [inhibitor, partial curve, poor fit] |
| CCOc1ncccc1C(=O)NNC(=O)c1ccc(NS(=O)(=O)c2cccs2)cc1 |  | inconclusive [inhibitor, full curve, poor fit] |
| CCOC(=O)NC(Nc1sc2c(c1C(N)=O)CCCC2)(C(=O)OCC)C(F)(F)F (configuration not stated) |  | inconclusive [inhibitor, partial curve, poor fit] |
| NS(=O)(=O)c1ccc(CCNC(=O)COC(=O)COc2cccc(C(F)(F)F)c2)cc1 |  | inconclusive [inhibitor, full curve, poor fit] |
| CC(=O)c1c(C)[nH]c(C(=O)Nc2cccc(C)c2C)c1C |  | inconclusive [inhibitor, full curve, poor fit] |
| COc1ccc(S(=O)(=O)N2CCCCC2)cc1NC(=O)COc1ccccc1 |  | inconclusive [inhibitor, partial curve, poor fit] |
| COc1cc2c(cc1OC)CN(C(=O)c1ccccc1C(=O)O)CC2 |  | inconclusive [inhibitor, partial curve, poor fit] |
| COc1ccc(NC(=O)c2c3c(nc4ccccc24)CCC3)cc1S(=O)(=O)N1CCOCC1 |  | inconclusive [inhibitor, partial curve, poor fit] |
| COc1ccc(-c2csc(NC(=O)C3CSC4(C)CCC(=O)N34)n2)c(OC)c1 (configuration not stated) |  | inconclusive [inhibitor, full curve, poor fit] |
| Oc1cccc(C(Nc2ccccn2)c2ccc3cccnc3c2O)c1Cl (configuration not stated) | inactive: 20.7% |  |

| Structure (SMILES) | activity change, negative = inhibition | Potency |
| --- | --- | --- |
| CCNc1ccc(N=Nc2c(C)n(C)n(-c3ccccc3)c2=O)cc1 |  | inconclusive [inhibitor, full curve, poor fit] |
| O=C(NC1(C(F)(F)F)NC(=O)N(Cc2cccnc2)C1=O)c1ccccc1Cl (configuration not stated) |  | inconclusive [inhibitor, full curve, poor fit] |
| O=C(O)c1ccc2c(c1)C(=O)N([C@H](Cc1c[nH]c3ccccc13)C(=O)O)C2=O |  | inconclusive [inhibitor, full curve, poor fit] |
| COC(=O)c1nc(NC(=S)NC(=O)c2cccs2)sc1C | inactive: -2.82% |  |
| O=C(c1noc2c1CSc1ccccc1-2)N1CCN(c2ccc(Cl)cc2)CC1 | inactive: -6.78% |  |
| CC(=O)NCCNC(=O)CCCc1nnc2n(CCC(C)C)c(=O)c3sccc3n12 | inactive: 20.4% |  |
| CCCCn1c(SCC(=O)Nc2nnc(C(C)C)s2)nc2c1c(=O)n(C)c(=O)n2C |  | inconclusive [inhibitor, partial curve, poor fit] |
| O=C(NCc1ccccn1)C(=O)Nc1cc2c3c(c1)CC(=O)N3CCC2 |  | inconclusive [inhibitor, single point] |
| O=C1[C@H]2[C@@H](C3CC3)N3C(=O)CN(Cc4ccccn4)C(=O)[C@@]3(Cc3ccccc3)[C@H]2C(=O)N1c1ccccc1 |  | inconclusive [inhibitor, full curve, poor fit] |
| Cc1cc(-c2csc(NC(=O)c3ccc(S(=O)(=O)N(C)C)cc3)n2)c(C)n1-c1ccccc1 | inactive: -5.92% |  |
| COCCNC(=O)C1CCN(S(=O)(=O)c2ccc3c(c2)CCCN3C(C)=O)CC1 | inactive: 5.79% |  |
| CC(C)C[C@@]12C(=O)N(c3cccc(Cl)c3)C(=O)N1[C@H](c1ccc(F)cc1)[C@@H]1C(=O)N(C3CCCCC3)C(=O)[C@@H]12 |  | inconclusive [inhibitor, partial curve] |
| CCOC(=O)c1c(C)n(OC)c2ccc3c(no[n+]3[O-])c12 |  | inconclusive [inhibitor, single point] |
| CC(O)CNCCOc1cccc(Oc2ccccc2)c1 (configuration not stated) |  | inconclusive [inhibitor, full curve, poor fit] |
| COC(=O)c1c(N2C(=O)CC(Sc3ccccc3C(=O)O)C2=O)sc(C)c1C (configuration not stated) | inactive: 4.71% |  |
| O=C(COC(=O)C1CCCCC1)Nc1ccc(S(=O)(=O)N2CCOCC2)cc1 |  | inconclusive [inhibitor, full curve, poor fit] |
| Cn1c(=O)oc2cc(S(=O)(=O)CCC(=O)NCc3ccccc3)ccc21 | inactive: 26% |  |
| CCOc1cc(CNCc2ccncc2)cc(Br)c1OCc1ccccc1F | inactive: -1.68% |  |
| Cc1ccc(-n2nnc3c(sc4nc(C)c(C)cc43)c2=O)cc1Cl | inactive: 16.9% |  |
| COc1cc(NC(=O)c2cccs2)c(C(=O)OCC(=O)NC(=O)NC(C)(C)C)cc1OC |  | inconclusive [inhibitor, full curve, poor fit] |
| O=C(c1ccco1)N1CCN(C(=O)c2ccc(Cn3cc(Br)cn3)o2)CC1 |  | inconclusive [inhibitor, full curve, poor fit] |
